Data taken from publication PMC4336329 (PLoS ONE, 2015).
The whole screen tested about 310,000 compounds, of which about 2,200 (0.71%) showed an effect of 50% or more. The effect is printed as a negative number. This is one part of the list.

The compounds below were run against human ether-à-go-go-related gene (hERG) potassium channel (human, UniProt Q12809) (assay: primary screen, population patch clamp on CHO cells stably expressing hERG).
Chain of human ether-à-go-go-related gene (hERG) potassium channel (Q12809 whole entry, looked up): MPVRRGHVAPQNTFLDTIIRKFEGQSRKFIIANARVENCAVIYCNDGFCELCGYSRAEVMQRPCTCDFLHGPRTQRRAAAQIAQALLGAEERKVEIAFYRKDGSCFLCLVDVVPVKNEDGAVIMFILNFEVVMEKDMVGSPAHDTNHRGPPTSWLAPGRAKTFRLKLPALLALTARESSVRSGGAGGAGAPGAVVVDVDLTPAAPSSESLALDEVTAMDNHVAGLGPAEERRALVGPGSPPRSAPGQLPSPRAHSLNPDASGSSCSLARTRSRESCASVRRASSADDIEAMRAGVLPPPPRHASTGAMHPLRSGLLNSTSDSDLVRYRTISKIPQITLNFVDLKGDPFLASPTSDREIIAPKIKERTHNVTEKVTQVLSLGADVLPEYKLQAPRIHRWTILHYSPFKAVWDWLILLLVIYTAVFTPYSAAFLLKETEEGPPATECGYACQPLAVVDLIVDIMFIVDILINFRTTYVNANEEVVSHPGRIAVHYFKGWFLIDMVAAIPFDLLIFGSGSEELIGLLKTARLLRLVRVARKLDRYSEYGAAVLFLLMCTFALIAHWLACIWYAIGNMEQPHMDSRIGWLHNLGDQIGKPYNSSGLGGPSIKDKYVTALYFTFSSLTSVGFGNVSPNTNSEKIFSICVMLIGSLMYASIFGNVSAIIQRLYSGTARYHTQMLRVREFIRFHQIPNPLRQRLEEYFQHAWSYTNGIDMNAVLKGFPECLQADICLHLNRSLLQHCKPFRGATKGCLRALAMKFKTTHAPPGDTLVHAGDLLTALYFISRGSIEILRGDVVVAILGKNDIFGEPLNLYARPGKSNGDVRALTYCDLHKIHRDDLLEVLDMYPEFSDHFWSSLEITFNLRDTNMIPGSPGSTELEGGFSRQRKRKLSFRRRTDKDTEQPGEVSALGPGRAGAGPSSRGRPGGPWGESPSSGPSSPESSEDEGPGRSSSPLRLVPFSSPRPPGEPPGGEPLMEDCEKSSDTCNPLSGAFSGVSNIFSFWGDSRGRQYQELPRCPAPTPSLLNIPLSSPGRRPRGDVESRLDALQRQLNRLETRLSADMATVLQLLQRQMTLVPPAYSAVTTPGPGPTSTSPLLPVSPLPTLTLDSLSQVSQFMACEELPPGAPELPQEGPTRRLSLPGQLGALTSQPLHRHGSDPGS

Row | SMILES | hERG current change (%, negative = inhibition) at 1uM
1 | N#CCCn1nnc(-c2ccccc2F)n1 | 23%
2 | CCOc1cc2[nH]c(=O)n(Cc3cccc(OC)c3)c(=O)c2cc1OCC | 6.96%
3 | CN(C)c1ccc(/C=N/OC(=O)Nc2ccccc2Cl)cc1 | -5.54%
4 | O=C(NCC1CCCO1)c1ccc(NS(=O)(=O)c2ccccc2)cc1 (stereo not drawn) | 14.8%
5 | CCCCc1nc(Cl)c(C#N)c2c1CSC(C)(C)C2 | 3.02%
6 | O=c1c2ccccc2c(-c2ccccc2)nn1-c1ccccc1 | 12.3%
7 | CCc1nn(C(C)C(=O)NCc2cccc(Cl)c2)c(=O)c2cc3occc3n12 (stereo not drawn) | 4.62%
8 | O=C(C[C@H]1C(=O)N(Cc2ccccc2)C[C@@H]1Cc1ccccc1)Nc1ccccc1 | 9.99%
9 | CCOC(=O)C1CCN(C(=O)c2cccc(S(=O)(=O)N(C)C3CCCCC3)c2)CC1 | -0.558%
10 | O=C(Nc1cccc(Cl)c1)c1nc[nH]c1C(=O)N1CCN(c2ccccc2)CC1 | 8.23%
11 | CCOP(=O)(c1ccc(N(C)C)cc1)C(O)c1cc(OC)c(OC)c(OC)c1 (stereo not drawn) | 2.97%
12 | Cc1ccccc1NC(=O)Cc1nc(COC(=O)CCC(=O)c2ccccc2)cs1 | 5.39%
13 | COc1c(/C=N/NS(=O)(=O)c2ccc(C)cc2)c(CCN(C)C(C)=O)cc2c1OCO2 | 0.0332%
14 | Cc1cccc(-c2nnc(SCC(=O)C(C)(C)C)n2C)c1 | 1.99%
15 | Cc1ncc(CO)c(/C=N/NC(=O)c2ccc(Br)cc2)c1O | 3.37%
16 | CCCCn1c(N)c(N(CCOC)C(=O)c2cc(=O)[nH]c3ccccc23)c(=O)[nH]c1=O | 5.99%
17 | CCCn1cnc2c(c1=O)c1nc3ccccc3nc1n2CCc1ccccc1 | 9.14%
18 | Cl.O=C(c1ccco1)N1CCN(C(c2ccc(F)cc2)c2nnnn2Cc2cccs2)CC1 (stereo not drawn) | -14.9%
19 | CC(=O)NCCNS(=O)(=O)c1ccc(C)c([N+](=O)[O-])c1 | 10.6%
20 | COc1cc(OC)c(C(=O)CCC(=O)O)cc1OC | -2.05%
21 | CN1C2CCC1CC(OC(c1ccccc1)c1ccccc1N)C2 (stereo not drawn) | -39.2%
22 | Cc1cc(C)c(C(=O)OCC(=O)NCc2cccs2)c(C)c1 | 5.28%
23 | COc1ccc(CC(=O)Nc2cccc(-c3csc(C)n3)c2)cc1 | 4.49%
24 | COc1cccc(NC(=O)Cn2c(CCC(=O)O)ccc2-c2cccs2)c1 | 11%
